# Some of the results follow. For some assays here: At the low end of the ranking, values are background and their order means little. For some assays here: The protein was read in a cell extract, so binding may be indirect.
# Biological target: PU.1 (IVT) (UniProt P17947)
# Experiment: protein-binding microarray (PBM)
# Conditions: 20 mM HEPES pH 7.9, 100 mM NaCl, 1 mM DTT, 0.2 mg/mL BSA, 0.02% Triton X-100, 2% milk, 0.4 mg/mL salmon testes DNA; 1 h; temperature not stated; high values mean tight binding; double strand, one strand shown; sequences stand for … in GCCTAGCAC…GTGCTAGGTCTTGATTCGCTTGACGCTGCTG
row,Sequence,binding signal [z-score]
1,TCATAGAGGAACTGCGTACA,2.64
2,AAAGAGAGGAAGTACAGTTT,5.35
3,AAATGGAGGAAGTGGCTATA,4.08
4,AGATACAGGAAGTGAAAAAG,5.04
5,CAAGAGGGGAAGTGACAAGC,4.22
6,CAAATAGGGAAGTGGACTCA,6.15
7,AGAAGAGGGAAGTGGAGGTT,4.36
8,AAAAAGAGGAAGAGGAGGAG,5.1
9,GAAAAGGGGAACTGGGTGCC,5.91
10,GGGGTGAGGAAGTGCCTGGG,3.52
11,AGAGAAAGGAAGTGAAATTC,2.99
12,ATTTAGAGGAAGTGGGTGGG,5.09
13,GAAAACAGGGAGTCCCATAG,-0.561
14,GAAGTGAGGAAGTGTGGCTG,3.34
15,CAGGGAAGGAAGTGGTTTGA,2.11
16,GAAAAGAGGAACCGTATGGT,5.79
17,CCAAAGGGGAAGTTAGGGCT,5.78
18,CAAAAGGGGAAGTGAGAAAT,7.82
19,TGAAACGGGAAGTGTCAGCA,5.45
20,ACAGGAGGGAAGTGGCCTCA,2.3

row,Sequence,binding signal [z-score]
1,AAGAACAGGAAGTGGGACAT,5.16
2,TTACACAGGAAGTGCTGGCA,2.14
3,TGAAAGACGAAGTGCAACCA,0.212
4,CAGATGAGGAACTGATGCGG,3.9
5,TAATTGAGGAACTGCAAATG,4.82
6,AAGAAAGAGAACTACTGTGA,0.933
7,GAAAACAGGAAGGCCCATAG,2.91
8,TGAAAGAGGAAGTCAAATTG,7.31
9,GAAAGGAGGAAGTGGAGGGT,5.92
10,ACAAAAAGAAACTGTGCCCC,-0.593
11,AATATGAGGAAGTGCTCTAG,6.67
12,GGCAAGAGGAAGTGTTGCTG,4.82
13,AGAAGGAGGAAGTGGGGAGC,5.26
14,CTGGAGAGGAACTGAGTGCC,1.61
15,AAAAAGAGGAACTTGGGAAA,7.58
16,TAGAAGAGGAAGAGAGAAGT,3.35
17,GAGAAGAGGAAGTCCCCATT,6.15
18,ACAAAAAGGAACTGTGCCCT,1.84
19,GAAATGGGGAAGTGCCAACT,6.81
20,GGGGAAGGGAAGTGGACAGT,2.63

# Biological target: PU.1 (endogenous, THP-1 nuclear extract) (UniProt P17947)
# Experiment: nuclear extract protein-binding microarray (nextPBM)
# Conditions: 20 mM HEPES pH 7.9, 100 mM NaCl, 1 mM DTT, 0.2 mg/mL BSA, 0.02% Triton X-100, 2% milk, 0.4 mg/mL salmon testes DNA; 1 h; temperature not stated; high values mean tight binding; double strand, one strand shown; sequences stand for … in GCCTAGCAC…GTGCTAGGTCTTGATTCGCTTGACGCTGCTG
row,Sequence,binding signal [z-score]
1,TCATAGAGGAACTGCGTACA,2.76
2,AAAGAGAGGAAGTACAGTTT,5.23
3,AAATGGAGGAAGTGGCTATA,4.29
4,AGATACAGGAAGTGAAAAAG,5
5,CAAGAGGGGAAGTGACAAGC,4.12
6,CAAATAGGGAAGTGGACTCA,6.72
7,AGAAGAGGGAAGTGGAGGTT,4.56
8,AAAAAGAGGAAGAGGAGGAG,6.06
9,GAAAAGGGGAACTGGGTGCC,6.51
10,GGGGTGAGGAAGTGCCTGGG,3.81
11,AGAGAAAGGAAGTGAAATTC,2.52
12,ATTTAGAGGAAGTGGGTGGG,5.9
13,GAAAACAGGGAGTCCCATAG,-0.45
14,GAAGTGAGGAAGTGTGGCTG,2.98
15,CAGGGAAGGAAGTGGTTTGA,2.29
16,GAAAAGAGGAACCGTATGGT,6.29
17,CCAAAGGGGAAGTTAGGGCT,6.28
18,CAAAAGGGGAAGTGAGAAAT,7.36
19,TGAAACGGGAAGTGTCAGCA,6.28
20,ACAGGAGGGAAGTGGCCTCA,2.5

row,Sequence,binding signal [z-score]
1,AAGAACAGGAAGTGGGACAT,6.36
2,TTACACAGGAAGTGCTGGCA,2.41
3,TGAAAGACGAAGTGCAACCA,0.557
4,CAGATGAGGAACTGATGCGG,4.07
5,TAATTGAGGAACTGCAAATG,4.67
6,AAGAAAGAGAACTACTGTGA,1.08
7,GAAAACAGGAAGGCCCATAG,3.05
8,TGAAAGAGGAAGTCAAATTG,7.09
9,GAAAGGAGGAAGTGGAGGGT,6.16
10,ACAAAAAGAAACTGTGCCCC,-0.484
11,AATATGAGGAAGTGCTCTAG,6.7
12,GGCAAGAGGAAGTGTTGCTG,5.08
13,AGAAGGAGGAAGTGGGGAGC,5.88
14,CTGGAGAGGAACTGAGTGCC,1.92
15,AAAAAGAGGAACTTGGGAAA,7.2
16,TAGAAGAGGAAGAGAGAAGT,3.59
17,GAGAAGAGGAAGTCCCCATT,6.4
18,ACAAAAAGGAACTGTGCCCT,1.68
19,GAAATGGGGAAGTGCCAACT,7.04
20,GGGGAAGGGAAGTGGACAGT,2.81
